The chains are these.
B1: 37000718_37000838_210_5pUTR_ENSMUSG00000040565_ENSMUST00000099494|mouse|control|control (ssRNA)
RNA: GGGAGUUCUACAGUCCGACGAUCGCCGCGCCGCUCCGGCGUUCGUUUCCCGAGCAGAGCGGCGCAGGCCCAGGCCGCCGGGCGCAGGGCGGCAGGCGGCGCGGCGUGGAGCGGCCCGCACGGGCCUUCCGGCAUGUGCCGGCCCAACAGAGGAUUGAGCAUCA
B2: chr5:130536139:130536140:+_ENSMUSG00000025532_ENSMUST00000026608|mus_mus|FALSE|FALSE (ssRNA)
RNA: GGGAGUUCUACAGUCCGACGAUCUCAGAUUGGAGUUUUCUCUUAUCUCCUAUUCCGCCAAGGACAUUCCUCUACAGUGAGCUAAGCUCUGGGUCAUUUCCCCUAGAGCAGCUGUGUGCAGCUCUGAGAGCUGGUGACCAUCUGCAACAGAGGAUUGAGCAUCA
B3: 6456280_6456486_1514_CDS_ENSG00000164535_ENST00000297056|human|control|control (ssRNA)
RNA: GGGAGUUCUACAGUCCGACGAUCGAAGGCGUAGCACCUGACCUGCGGGUAGGCGGCUCUGAGCAUGGUGGCCAGCAGGGCGGCCGCCCCGCCCCCGAGGCUGUGGCCCACUAUGACCAGCCGGUACUCAGGAGCAAUGCUGAACAACAGAGGAUUGAGCAUCA
B4: chr5:6374476:6374477:-_ENSG00000133398_ENST00000255764|hu_hu|FALSE|FALSE (ssRNA)
RNA: GGGAGUUCUACAGUCCGACGAUCCAGGCUUUUAAAUUUCUUCAUGGUGUCGAUCUUGCCUUUAACUUGCUCAUUUUUAGCUAGAGCCCUCUCCAGGCACUCUUUGGUGUAGAGCUGGGGAUUUCGACCUUGAUCUAUAUAUUCCAACAGAGGAUUGAGCAUCA
B5: chr14:76904501:76904502:+_ENSMUSG00000022010_ENSMUST00000022587|mus_hu|FALSE|FALSE (ssRNA)
RNA: GGGAGUUCUACAGUCCGACGAUCUCCUAGAUCCAUCGCCACUGGUCUACACCAUUGGGAUUUCAUGCAAUUGCAGCCAAAAACACCCUCGUGGAAAAAAAGAGGGAACACCAGCAGCCUUGUAUAAGCUAGAUAAAAUCUUCUCAACAGAGGAUUGAGCAUCA
B6: chr1:66480114:66480115:+_ENSMUSG00000015222_ENSMUST00000024639|mus_hu|mus_mus_mus_hu_True|58_98 (ssRNA)
RNA: GGGAGUUCUACAGUCCGACGAUCUGGCCUGUGGCGGAUGUUCUUUAGAGAGCCACAUUUGGAUGUCACAUGGCUUAAGUCUAUCUUCUUGGUAACAAUUUGUACCUGCCCCCCUUUAGGCUGGUAUUUGAUGUUGUCUGUUGACAACAGAGGAUUGAGCAUCA
B7: chr2:127629987:127629988:-_ENSMUSG00000027379_ENSMUST00000028858|mus_mus|motif|central (ssRNA)
RNA: GGGAGUUCUACAGUCCGACGAUCACCAGAUGUUUCACAUUUUCCUGUAAAUACAGUUCCUUUAGGGAAAAGUUUCAUAUCGGUACUCUGACCCAGGUCAAUCAAUGCCAAGCCGGUAGCUAAGUCUUCAUCAGCCUGUUCCAACAACAGAGGAUUGAGCAUCA
B8: chr10:61005495:61005496:+_ENSG00000165443_ENST00000486074|hu_hu|FALSE|FALSE (ssRNA)
RNA: GGGAGUUCUACAGUCCGACGAUCAACUUAGGGUAUUUCAUCAUUGAAAGUAGUGGGAGGGGUAGGGAAUAGGAAAACACUAAAAUGGUUCUGAAUGAAAUUUGGAAAGUGGUAGUUGUUUGUUUUGGUGACAGUGGCAUGUGCCAACAGAGGAUUGAGCAUCA
B9: chr3:139075817:139075818:+_ENSG00000175110_ENST00000310776|hu_mus|FALSE|FALSE (ssRNA)
RNA: GGGAGUUCUACAGUCCGACGAUCUCAGGAUGCUGCGGAAUGACUGGUAACUAUUUCUUGAUAAGUUUGAAGUGCUAAUUCUAUAUAUGCUCCUCUCUGUGCUUCUGUUUUUGCGAAGACCUUAAUUAAGUCGACUCCCUCAGCCAACAGAGGAUUGAGCAUCA
B10: 57293318_57293438_1124_CDS_ENSMUSG00000079184_ENSMUST00000116468|mouse|control|control (ssRNA)
RNA: GGGAGUUCUACAGUCCGACGAUCUUUGGGUAUUGCUCUCCUUUCUAAAAAGGCAUUCGUGCUUUCAAGCUUCUUGAUCUCUUUUGGUUCCUCAAACUUUCUUGGCUUCGUCUUCUUCCUUCUAACUCGGGUACCAGCAUCCUCCAACAGAGGAUUGAGCAUCA
B11: chr4:107939148:107939149:-_ENSMUSG00000034636_ENSMUST00000043616|mus_mus|motif|central (ssRNA)
RNA: GGGAGUUCUACAGUCCGACGAUCCAUCUGGUUACCUCUGAAAAUUCCCACAGUUCCAUCAUUCAGGAGACCGUGGAAUGCGGUAGUCUGAAGAAGCCGGUCAGCCACCUCCUGUGGGAACACCCCAGGCUCCUGCAGACACAGCAACAGAGGAUUGAGCAUCA
B12: chr5:31261203:31261204:-_ENSMUSG00000045302_ENSMUST00000088063|mus_mus|FALSE|FALSE (ssRNA)
RNA: GGGAGUUCUACAGUCCGACGAUCGAAGCACACAACUUUCUGCAGCGGUUCAUUGCUGAAGUCUGUCUGUACUGCCUCCAAAUUCUUUACUUUGAGUUCAACCCCUUCGGGGUGAACUUGUGCUCCCGAUUUCUUCUCUGCUGGCAACAGAGGAUUGAGCAUCA
B13: chr10:61005217:61005218:+_ENSG00000165443_ENST00000486074|perfect_dup|motif|central (ssRNA)
RNA: GGGAGUUCUACAGUCCGACGAUCGUGAUUUCUGCCACGGUGCCCACAGAAAGAUCCACAGGGUCAGUGUAAAUGACUUCGGAAAUGACAUCCUGGGCAUGGUGGUAAACCAGCACCCCAUCUUCUUCUGUACAGGUCAAAAAUCAACAGAGGAUUGAGCAUCA
B14: chr16:17900988:17900989:-_ENSMUSG00000003527_ENSMUST00000003621|mus_mus|motif|central (ssRNA)
RNA: GGGAGUUCUACAGUCCGACGAUCGUAGGAGCUGAAGCAGACACCAUGAAGGAGUGUCACGUCCUGGCUGGCUUCCUCUCGGGUUUCCUCCCAGGCUUUCUGACUCAACCCAAGACCACUGCCCUCCUACAUCGAUUGACGAUCCAACAGAGGAUUGAGCAUCA
B15: 7680430_7680550_113_5pUTR_ENSG00000106399_ENST00000396682|human|control|control (ssRNA)
RNA: GGGAGUUCUACAGUCCGACGAUCGGGACUGCGGGGCCAGCCUCAGGUACCUCGUCUCGCGGGAGGCGCCGCAACCUUACUGUUUCCCCAUUCUUCCCGCGAACAGAGUCAAAAGAGCUAGGCGGGAGUCGGCACUAGCUGCUGCAACAGAGGAUUGAGCAUCA
B16: 51530015_51530135_2287_3pUTR_ENSMUSG00000036391_ENSMUST00000109097|mouse|control|control (ssRNA)
RNA: GGGAGUUCUACAGUCCGACGAUCGAAGACAGACAUUCGACCACCAGUUGGUGAUAUCAGCUUGAAUGCAGCCUGAAGUGCAGGACCCAAGGCACUCUGGGUCUCCAGCGUCUUCGUAAACAUUUGUGGCAGCGUUUUCAGUAACAACAGAGGAUUGAGCAUCA
B17: chr9:45784209:45784210:-_ENSMUSG00000003131_ENSMUST00000172450|mus_hu|FALSE|FALSE (ssRNA)
RNA: GGGAGUUCUACAGUCCGACGAUCGGAGUCUCCCACGAACAGUACAUCAGGCUCUUUGUCUUUACAGUCCAAAACAAAUCUGUUGUGCUGAGACAUCCAUCGGUCAUCUCCUUGAAUAUCUUCUGCUGCAUGCGGAAUAGCUGCCAACAGAGGAUUGAGCAUCA
B18: chr5:64741823:64741824:+_ENSMUSG00000029174_ENSMUST00000119756|mus_mus|FALSE|FALSE (ssRNA)
RNA: GGGAGUUCUACAGUCCGACGAUCAAUAAAUAUGUCAGACCCCACAGCUACAGGUCCCACACUAGCAAUAACAGGGAAUCUAAAAACUGUGAUUUCCUUAUGAAACAUUUACCUGUGACUUGAAAGGGUAAGCAAAAACCAUACCAACAGAGGAUUGAGCAUCA
B19: chr7:44244176:44244177:+_ENSG00000106636_ENST00000223369|hu_mus|hu_hu_hu_mus_False|38_48 (ssRNA)
RNA: GGGAGUUCUACAGUCCGACGAUCACUGUCGCUCCGGACGUAGACAUGGCAAAGAUACUCUUGUUCUUUGACAGAAGCUCUGCUGCCUUUCGAUGAGCGCUCCACAAUCAGUUGACUUGUAAAGGUCAUGAAUUCCUGCACACUCAACAGAGGAUUGAGCAUCA
B20: chr7:141450121:141450122:+_ENSG00000106028_ENST00000265304|hu_mus|hu_hu_hu_mus_True|88_108 (ssRNA)
RNA: GGGAGUUCUACAGUCCGACGAUCUCAUCCUUUCUACGCCUUUUCUUUCGUCUGGUCACUCAGAAAUAUAAUGUUAUCAGCUAUGAUUGUUGUUGCUUGCCGCCUCACAUUGUUUUUAUCCAUGUACUCGCCAUAGUCCACUUUCAACAGAGGAUUGAGCAUCA
B21: chr7:141450121:141450122:+_ENSG00000106028_ENST00000265304|hu_mus|hu_hu_hu_mus_True|8_38 (ssRNA)
RNA: B20 RNA with U30G, C36U, C48U, C99U, G129A
B22: chr3:101181902:101181903:+_ENSMUSG00000042035_ENSMUST00000043983|mus_hu|FALSE|FALSE (ssRNA)
RNA: GGGAGUUCUACAGUCCGACGAUCUGAUCUCCCUCAUUCGGAUUCCCCAGAGAGAACAGGGCAGGUUUCGUCAAAACCUUUGACGGCCAAAUCACCCUGCCUGGCAUCAACCGUUUGGGUUUCUUCACCAAAAAGUCCGUUUCCCAACAGAGGAUUGAGCAUCA

Numbering of substitutions follows the chain as printed. The list shows a part of the results.

Consider 22 molecules from article PMC12136788.

The test has as its target T1, UNK ZnF1-3 (human, UniProt Q9C0B0 31-174).
T1 sequence: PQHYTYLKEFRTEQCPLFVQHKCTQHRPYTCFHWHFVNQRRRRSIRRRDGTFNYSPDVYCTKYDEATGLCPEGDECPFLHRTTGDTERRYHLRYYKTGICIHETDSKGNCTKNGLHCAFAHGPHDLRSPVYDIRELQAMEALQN
The test can be described thus: nsRBNS (natural sequence RNA bind-n-seq); RBNS binding buffer (assumed for nsRBNS): 25 mM Tris pH 7.5, 150 mM KCl, 3 mM MgCl2, 0.01% Triton X-100, 500 ug/ml BSA, 20 U/ml SUPERase-In, 4 C; UNK is unkempt and MSI1 is Musashi-1; names of the RNAs are library labels; protein concentration not given here; high values mean tight binding.
B1: the binding signal worked out at 0.34 enrichment R.

B2 gave a binding signal of 0.374 enrichment R.

On to B3, for which the binding signal stood at 1.07 enrichment R.

For the molecule B4, the binding signal was 0.569 enrichment R.

In turn, B5 gave a binding signal of 1.31 enrichment R.

In turn, B6 yielded a binding signal of 0.402 enrichment R.

B7: the binding signal is 0.764 enrichment R.

Molecule B8 displayed a binding signal of 2.17 enrichment R.

Consider B9, for which the binding signal turned out to be 0.909 enrichment R.

As for B10, the binding signal worked out at 0.314 enrichment R.

The molecule B11 gave a binding signal of 0.731 enrichment R.

For B12, the binding signal amounted to 0.423 enrichment R.

Molecule B13 yielded a binding signal of 0.663 enrichment R.

B14 returned a binding signal of 1.09 enrichment R.

Molecule B15 yielded a binding signal of 0.65 enrichment R.

The molecule B16 displayed a binding signal of 0.985 enrichment R.

As for B17, the binding signal came to 0.952 enrichment R.

In the case of B18, the binding signal amounted to 1.4 enrichment R.

As for B19, the binding signal was found to be 0.622 enrichment R.

As to B20, the binding signal turned out to be 0.351 enrichment R.

Turning to B21, the binding signal was 0.359 enrichment R.

With B22, the binding signal worked out at 0.936 enrichment R.
